# Laboratory results reported in the supplement of paper PMC8728848.
# Some of the results follow.
# Experiments:
# Test in all cases: glycan array binding signal (z-score within array); higher = stronger binding
# Conditions in all cases: glycan notation: IUPAC condensed, linker removed
# Neu5Ac(a2-8)Neu5Ac = target: Neu5Ac(a2-8)Neu5Ac
# In short: (§1)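 The binding signal is a Z-score computed within each array. Data were drawn from 3228 arrays in the Consortium for Functional Glycomics database, restricted to those with a known protein sequence. Scores were averaged over arrays of the same protein sequence at different concentrations or buffers, and over linkers, and negative values can be taken as non-binding.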
# [1] = target: Neu5Ac(a2-8)Neu5Ac(a2-3)Gal(b1-3)GalNAc(b1-4)[Neu5Ac(a2-3)]Gal(b1-4)Glc
# In short: as §1
# [2] = target: Neu5Ac(a2-8)Neu5Ac(a2-3)Gal(b1-3)GalNAc(b1-4)[Neu5Ac(a2-8)Neu5Ac(a2-3)]Gal(b1-4)Glc
# In short: as §1
# [3] = target: Neu5Ac(a2-8)Neu5Ac(a2-3)Gal(b1-4)Glc
# In short: as §1
# [4] = target: Neu5Ac(a2-8)Neu5Ac(a2-3)Gal(b1-4)GlcNAc
# In short: as §1
# [5] = target: Neu5Ac(a2-8)Neu5Ac(a2-3)[Gal(b1-3)GalNAc(b1-4)]Gal(b1-4)Glc
# In short: as §1
# [6] = target: Neu5Ac(a2-8)Neu5Ac(a2-3)[GalNAc(b1-4)]Gal(b1-4)Glc
# In short: as §1
# [7] = target: Neu5Ac(a2-8)Neu5Ac(a2-8)Neu5Ac
# In short: as §1
# [8] = target: Neu5Ac(a2-8)Neu5Ac(a2-8)Neu5Ac(a2-3)Gal(b1-4)Glc
# In short: as §1
# [9] = target: Neu5Ac(a2-8)Neu5Ac(a2-8)Neu5Ac(a2-3)[Gal(b1-3)GalNAc(b1-4)]Gal(b1-4)Glc
# In short: as §1
# [10] = target: Neu5Ac(a2-8)Neu5Ac(a2-8)Neu5Ac(a2-3)[GalNAc(b1-4)]Gal(b1-4)Glc
# In short: as §1
# [11] = target: Neu5Ac(a2-8)Neu5Ac(a2-8)Neu5Ac(a2-8)Neu5Ac(a2-3)[GalNAc(b1-4)]Gal(b1-4)Glc
# In short: as §1
# [12] = target: Neu5Ac(a2-8)Neu5Gc(a2-3)Gal(b1-4)GlcNAc
# In short: as §1
# [13] = target: Neu5Ac(b2-6)Gal(b1-4)GlcNAc
# In short: as §1
# Neu5Ac(b2-6)GalNAc = target: Neu5Ac(b2-6)GalNAc
# In short: as §1
# [14] = target: Neu5Ac9Ac(a2-3)Gal(b1-3)GlcNAc
# In short: as §1
# [15] = target: Neu5Ac9Ac(a2-3)Gal(b1-4)GlcNAc
# In short: as §1
# [16] = target: Neu5Ac9Ac(a2-6)Gal(b1-4)GlcNAc
# In short: as §1
# [17] = target: Neu5Gc(a2-3)Gal(b1-3)GlcNAc
# In short: as §1
# [18] = target: Neu5Gc(a2-3)Gal(b1-3)[Fuc(a1-4)]GlcNAc
# In short: as §1
# Neu5Gc(a2-3)Gal(b1-4)Glc = target: Neu5Gc(a2-3)Gal(b1-4)Glc
# In short: as §1
# [19] = target: Neu5Gc(a2-3)Gal(b1-4)GlcNAc
# In short: as §1
# [20] = target: Neu5Gc(a2-3)Gal(b1-4)GlcNAc(b1-3)Gal(b1-4)GlcNAc(b1-2)Man(a1-3)[Neu5Gc(a2-3)Gal(b1-4)GlcNAc(b1-3)Gal(b1-4)GlcNAc(b1-2)Man(a1-6)]Man(b1-4)GlcNAc(b1-4)GlcNAc
# In short: as §1
# [21] = target: Neu5Gc(a2-3)Gal(b1-4)[Fuc(a1-3)]GlcNAc
# In short: as §1
# [22] = target: Neu5Gc(a2-6)Gal(b1-4)GlcNAc
# In short: as §1
# Neu5Gc(a2-6)GalNAc = target: Neu5Gc(a2-6)GalNAc
# In short: as §1
# [23] = target: Neu5Gc(a2-8)Neu5Ac(a2-3)Gal(b1-4)GlcNAc
# In short: as §1
# [24] = target: Neu5Gc(a2-8)Neu5Gc(a2-3)Gal(b1-4)GlcNAc
# In short: as §1
# [25] = target: Neu5Gc(a2-8)Neu5Gc(a2-3)Gal(b1-4)GlcNAc(b1-3)Gal(b1-4)GlcNAc
# In short: as §1
# [26] = target: Neu5Gc(a2-8)Neu5Gc(a2-6)Gal(b1-4)GlcNAc
# In short: as §1
# [27] = target: Neu5Gc(b2-6)Gal(b1-4)GlcNAc
# In short: as §1
binder,measurement,setting,value
SBD-G4S3-Fc (protein) MASIPSSASVQLDSYNYDGSTFSGKIYVKNIAYSKKVTVVYADGSDNWNNNGNIIAASFSGPISGSNYEYWTFSASVKGIKEFYIKYEVSGKTYYDNNNSANYQVSTGGGGSGGGGSGGGGSEFVPRDCGCKPCICTVPEVSSVFIFPPKPKDVLTITLTPKVTCVVVDISKDDPEVQFSWFVDDVEVHTAQTQPREEQFNSTFRSVSELPIMHQDWLNGKEFKCRVNSAAFPAPIEKTISKTKGRPKAPQVYTIPPPKEQMAKDKVSLTCMITDFFPEDITVEWQWNGQPAENYKNTQPIMDTDGSYFVYSKLNVQKSNWEAGNTFTCSVLHEGLHNHHTEKSLSHSPGAA,glycan array binding signal (z-score),Neu5Ac(a2-8)Neu5Ac,-0.103
same,glycan array binding signal (z-score),[1],0.176
same,glycan array binding signal (z-score),[2],-0.313
same,glycan array binding signal (z-score),[3],-0.345
same,glycan array binding signal (z-score),[4],0.376
same,glycan array binding signal (z-score),[5],-0.244
same,glycan array binding signal (z-score),[6],-0.463
same,glycan array binding signal (z-score),[7],-0.37
same,glycan array binding signal (z-score),[8],-0.456
same,glycan array binding signal (z-score),[9],-0.248
same,glycan array binding signal (z-score),[10],-0.468
same,glycan array binding signal (z-score),[11],-0.006
same,glycan array binding signal (z-score),[12],7.21
same,glycan array binding signal (z-score),[13],-0.368
same,glycan array binding signal (z-score),Neu5Ac(b2-6)GalNAc,-0.513
same,glycan array binding signal (z-score),[14],0.058
same,glycan array binding signal (z-score),[15],-0.352
same,glycan array binding signal (z-score),[16],0.039
same,glycan array binding signal (z-score),[17],-0.167
same,glycan array binding signal (z-score),[18],-0.293
same,glycan array binding signal (z-score),Neu5Gc(a2-3)Gal(b1-4)Glc,-0.139
same,glycan array binding signal (z-score),[19],-0.038
same,glycan array binding signal (z-score),[20],-0.115
same,glycan array binding signal (z-score),[21],0.185
same,glycan array binding signal (z-score),[22],-0.372
same,glycan array binding signal (z-score),Neu5Gc(a2-6)GalNAc,-0.136
same,glycan array binding signal (z-score),[23],-0.265
same,glycan array binding signal (z-score),[24],0.127
same,glycan array binding signal (z-score),[25],-0.307
same,glycan array binding signal (z-score),[26],-0.4
same,glycan array binding signal (z-score),[27],-0.085
